Out of some 48,000 compounds screened, about 120 (0.25%) were called active. Another 4% or so got no clear call; they are omitted. Calls come from the whole dose curve; as a rule, active = well fitted activation curve with a large enough effect; inconclusive = small, poorly fitted or top-dose-only effect, or another doubt; inactive = no such curve, though single readings can be large or run the other way. This is one part of the list.
Assay: Primary qHTS for Identification of Small Molecule Activators of Huntingtin-Antisense Promoter Activity; note: nearly all actives have a fitted effect of over 55% in size
Conditions: HEK293 HTT-AS promoter firefly luciferase reporter (activity 0% = vehicle and -100% = no light), 24 h; series mostly up to 57.5 µM; activity change, positive = activation: at the top concentration
Summary of the method: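 Luminescence was read after Dual-Glo reagent and a 10 min room-temperature incubation. Values were normalized to vehicle (0% activity) and zero RLU (-100% activity). Reporter HEK293 cells had been exposed to compounds (up to 57.5 uM final) for 24 h.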

Activity change, positive = activation, inactive:
Cc1noc(C)c1S(=O)(=O)N(CC(=O)NCc1ccccc1)c1ccc(C(C)C)cc1 -20%
O=C(COCc1cc(-c2ccco2)on1)Nc1cc(Cl)ccc1O -9.68%
COc1ccc(-c2nc(SCC(=O)NC3CCCC3)c(-c3ccc(F)cc3)[nH]2)cc1OC -17.1%
COc1ccc(NC(=O)Cn2c(=O)c3cccn3c3ccccc32)cc1 -13.2%
COc1ccc(S(=O)(=O)NCCc2sc(-c3cccnc3)nc2C)cc1 -12.9%
O=C(NC1CC(=O)N(c2ccc(F)cc2)C1)c1ccc(S(=O)(=O)N2CCOCC2)cc1 (configuration not stated) -13.6%
Cc1ccc(-n2ncc3c(Nc4ccc5c(c4)OCCO5)ncnc32)cc1Cl 0.495%
CCOCCCN1C(=O)CN(C2CCCCCC2)C(=O)C1c1ccc(OCC)c(OC)c1 (configuration not stated) 10.4%
COc1cc(OC)cc(C(=O)Nc2ccc3c(c2)CCCN3C(=O)c2cccs2)c1 -25.7%
CCSc1nc(-c2ccccc2)nc2c1Cc1c(CO)cnc(C)c1O2 2.66%
CCOC(=O)C1CCN(C(=O)C2CCN(S(=O)(=O)c3c(C)noc3/C=C/c3ccc(C)cc3)CC2)CC1 -39.2%
CCCCN(C)S(=O)(=O)c1ccc(C(=O)Nc2sc3c(c2C(=O)OCC)CCN(C(C)C)C3)cc1 -24.7%
CCOC(=O)c1[nH]c(C)c(CCC(=O)N2CCN(c3ccc(OC)cc3)CC2)c1C -15.1%
O=C(O)CCC(=O)N1CCc2cc(S(=O)(=O)NCc3ccc(F)cc3)ccc21 10.3%
COc1ccc(NC(=O)c2cccc3c(=O)c4c([nH]c23)CCCC4)cc1 -18.1%
Cc1ccc(C(C)C)c(OCC(=O)Nc2ccc3c(c2)nc(CCNC(=O)c2ccco2)n3C)c1 -9.35%
CCCC1=Nc2cc(C(=O)NCc3ccccc3)ccc2Sc2ccccc21 -36.8%
O=C1OC2(c3ccccc31)c1cc(Br)c(O)c(Br)c1Oc1c2cc(Br)c(O)c1Br -10.4%
CC/C(=C(\c1ccccc1)c1ccc(OCCN(C)C)cc1)c1ccccc1 -29.1%
O=C(Nc1cccc(Br)c1)c1cc(S(=O)(=O)N2CCCCC2)c[nH]1 -5.52%
COc1ccc(-c2nc3n(n2)C(c2ccc(O)cc2)C(C(=O)Nc2cccnc2)=C(C)N3)cc1OC (configuration not stated) -9.42%
Cc1cc(S(=O)(=O)Nc2cc3c(cc2N2CCOCC2)n(C)c(=O)c(=O)n3C)ccc1F -13.5%
CCc1oc2ccccc2c1C(=O)c1cc(Br)c(O)c(Br)c1 -43.3%
CCOc1ccc(CCNC(=O)NCc2noc3ccc(C)cc23)cc1 -18.6%
CCOCCc1nn2c(=O)cc(COC(=O)c3ccc(NC(=O)c4cccs4)cc3)nc2s1 -9.51%
Cc1cccc(C(=O)N2CCc3cc(CNC(=O)c4ccco4)ccc32)c1 -48.2%
CCCNC(=O)c1ccc(Cn2c(SCC(=O)NC(C)C)nc3ccccc3c2=O)cc1 -8.51%
COc1ccccc1CNc1nccn(-c2ccc(F)cc2)c1=O 0.108%
CCCn1c2ccccc2c2cnn(CC(=O)NCC3CCN(Cc4ccccc4C)CC3)c(=O)c21 -25.9%
COC(=O)CN1C(=O)C(O)(c2c(C)[nH]c3ccccc23)c2ccccc21 (configuration not stated) -15%
Cc1csc2nc(COc3ccc(NC(=O)c4ccccc4F)cc3)cc(=O)n12 -17.6%
COc1ccc(C(=O)Nc2nc(-c3ccc(Br)cc3)ns2)cc1 -23.9%
Cc1nn(Cc2ccccc2Cl)c(C)c1CN(C)CC(O)COc1ccc(Cl)cc1 (configuration not stated) -16.7%
Cc1ccc(N(CC(=O)Nc2ccc(F)cc2F)S(=O)(=O)c2cccs2)cc1 -30.5%
CCC(=O)C1=C(c2ccccc2)N(C(=O)CC)n2c(nnc2-c2ccccc2)S1 -12.3%
Cc1ccc(S(=O)(=O)NCCc2nnc3ccc(SCc4ccccc4F)nn23)cc1 -18.6%
O=C(COc1ccccc1F)Nc1nnc(SCc2cc(=O)n3ccccc3n2)s1 -5.92%
CCOC(=O)c1cc2c(=O)n3ccccc3nc2n(CC2CCCO2)c1=NC(=O)c1cccc(C)c1 (configuration not stated) 0%
Cc1ccccc1Cn1nnc2sc3c(c2c1=O)CCCC3 -3.71%
CCOC(=O)c1c(NC(=O)Nc2ccc(F)cc2)sc(C(=O)N(C)C)c1C -11.1%
COc1ccc(CCNC(=O)c2ccc3c(c2)N(Cc2ccccc2Cl)C(=O)c2ccccc2S3)cc1OC -14.4%
Cn1cc(CCCC(=O)NCc2cccc(Br)c2)c2ccccc21 -16.7%
COc1ccc(-c2cccc(NS(=O)(=O)c3cc(C(F)(F)F)ccc3Cl)c2)nn1 -26.2%
CCc1nc2ccc(C(=O)NCc3ccccc3C)cc2nc1CC 7.39%
O=c1c(NCc2cccs2)nccn1-c1ccccc1 24.6%
CN=C(N)NC(=O)Nc1c(C)cccc1C -6.53%
COc1ccc(-n2cc(-c3ccccc3)c3c(N4CCCC(C)C4)ncnc32)cc1 (configuration not stated) -6.84%
Cc1ccc(CN2c3ccccc3-c3nc(SCC(=O)NCc4ccccc4)ncc3S2(=O)=O)cc1 -5.97%
O=C(CS(=O)(=O)c1cccc2nsnc12)NCc1ccccc1Cl -3.39%
COc1ccc(C(=O)NCCc2csc(-c3ccc(Cl)cc3)n2)cc1 -18.7%
CCC(Oc1ccc(F)cc1)C(=O)Nc1nc2c(s1)CCCC2 (configuration not stated) -10.1%
CCc1ccc(-c2cc(C)no2)cc1S(=O)(=O)NCc1ccco1 -22.9%
O=C(c1cncc(Br)c1)N1CCC(N2CCCC2)CC1 -0.646%
Cc1cnc(C(=O)O)c[n+]1[O-] -4.59%
COc1ccc(C2=N[C@H](c3ccc(Cl)cc3)[C@H](c3ccc(Cl)cc3)N2C(=O)N2CCNC(=O)C2)c(OC(C)C)c1 -17%
COc1ccc(C(=O)N2c3nc(-c4ccco4)nn3C3(CCCCC3)[C@@H]3CCCC[C@@H]32)cc1OC -26.8%
CC(=O)Nc1cccc(O)c1 -3.7%
Cc1cccc(C(=O)N2CCCCC2CCN2CCCCC2)c1 (configuration not stated) -2.49%
O=C(Nc1ccc(F)cc1)c1oc2ccccc2c1NC(=O)C1CCCCC1 -6.86%
O=C(NC1CCCCC1)c1ccc(Cn2c(SCc3ccccc3)nc3cccnc32)cc1 -5.82%
CCCCCCc1cc2cc(-c3nnc(-c4cccc(Cl)c4)o3)c(=O)oc2cc1O -14%
Cc1ccc(NC(=O)c2oc3ccc(S(=O)(=O)N4CCCCC4)cc3c2C)c(C)c1 0%
Cc1cccc(N2CCN(C(=O)C(C)n3nc(C)n4c(cc5occc54)c3=O)CC2)c1C (configuration not stated) -13.9%
Cc1cc(C)c(NC(=O)c2c(C)oc3c2C2=NCCN2C=N3)c(C)c1 2.5%
Cc1cc(C)c(NC(=O)CN2C(=O)C3(SCC(=O)N3c3ccc(F)cc3)c3ccccc32)c(C)c1 (configuration not stated) -25.6%
CCc1ccc(CNC(=O)Cn2nc(-c3ccc(Cl)cc3)ccc2=O)cc1 -33%
COc1ccc(C2c3c(n(C)c4ccccc34)C(=O)N2CC(=O)Nc2ccc(C)cc2Cl)cc1 (configuration not stated) -25.8%
CCN(CC)S(=O)(=O)c1ccc(-c2csc(=Nc3cccc(C(F)(F)F)c3)n2Cc2ccc3c(c2)OCO3)cc1 -16.7%
CCOC(=O)C1=C(O)C(=O)N(Cc2ccccc2)C1 -6.82%
O=c1c(O)c(-c2ccc(O)c(O)c2)oc2cc(O)cc(O)c12
Cc1ccc(S(=O)(=O)N2CCCc3cc(NS(=O)(=O)c4ccc(F)cc4)ccc32)cc1 -38.8%
CN(C)c1ccc(CNC(=O)C2CCN(S(=O)(=O)c3ccc4c(c3)oc(=O)n4C)CC2)cc1 -6.63%
COc1cccc(NC(=O)Cn2c(=O)n(Cc3ccc(C(=O)NCc4ccc5c(c4)OCO5)cc3)c(=O)c3ccccc32)c1 -5.32%
Nc1c(C(=O)NCCc2ccccc2)nnn1CC(=O)Nc1ccc(Cl)cc1 -6.54%
O=C(CSc1nc2c([nH]c3ccccc32)c(=O)n1-c1ccccc1)c1ccc(Cl)cc1 -3.56%
COc1cc(NS(=O)(=O)c2ccc3[nH]c4c(c3c2)CCCC4)cc(OC)c1OC -55.4%
C=Cc1ccc(Cn2c(C(=O)O)c(CNCCc3ccccc3)c3ccc(C)cc32)cc1 -47.7%
CCCn1c(CCC(=O)Nc2cccc(C)c2C)nc2cccnc21 -19.4%
Cc1ccccc1OCCCCn1c(C2CC(=O)N(c3ccccc3Cl)C2)nc2ccccc21 (configuration not stated) -34.3%
CCOC(=O)C1CCCN(c2c(C(=O)c3ccc(C)cc3)cnc3ccc(OCC)cc23)C1 (configuration not stated) -32.5%
COc1ccc(CC(=O)Nc2ccc3nc(Nc4cccc(Cl)c4)cc(C)c3c2)cc1 -44.2%
Cc1ccc(Nc2c(-c3ccc(N4CCOCC4)cc3)nc3c(C)cccn23)cc1 -4.04%
O=C(O)C1(C(=O)O)CCC1.[NH2-].[NH2-].[Pt+2] -4.92%
COCCCn1c(=O)c2sccc2n2c(CCCC(=O)Nc3ccc(F)c(F)c3)nnc12 -20.6%
Cc1ccc2nc(NC(=O)c3ccc(S(=O)(=O)N4CCCc5ccccc54)cc3)sc2c1 -34.8%
COc1ccc(CNC(=O)CCC2N=C3c4ccccc4N=C(SCc4ccc(F)cc4)N3C2=O)cc1 (configuration not stated) 2.82%
O=C(C1CCCCC1)N(Cc1cccnc1)c1nc2c(F)cc(F)cc2s1 -14.3%
COc1ccc(OC)c(NC(=O)c2c(NCc3ccc(OC)c(OC)c3)sc3c2CCC(C)C3)c1 (configuration not stated) -27%
CCN1CCOC(=O)C1CC(=O)Nc1ccc(C)c(Cl)c1 (configuration not stated) -14.1%
Nc1c(C(=O)Nc2cccc(F)c2)sc2nc(-c3cccs3)ccc12 12%
Cc1cc(C)nc(NS(=O)(=O)c2ccc(NC(=O)c3cc(=O)c4ccc(C)c(C)c4o3)cc2)n1 -11%
CN1CCN(C2(CNC(=O)c3ccc([N+](=O)[O-])cc3)CCCCC2)CC1 -9.65%
Cc1ccccc1-c1nc2scc(CCNC(=O)C(=O)Nc3ccc(F)cc3F)n2n1 -5.31%
CCc1ccccc1NC(=O)CSc1nc2ncccc2o1 -20.2%
O=C(CCc1ccccc1)N1CCc2c([nH]c3ccccc23)C1c1ccc(Cl)cc1 (configuration not stated) -38.4%
O=C(CC(c1cccs1)N1Cc2ccccc2C1=O)Nc1ccc(F)cc1F (configuration not stated) -27.2%
O=C(CSc1nc(=O)n(CCN2CCOCC2)c2c1CCC2)Nc1cccc(Cl)c1 -14.7%
